Experimental data: PubChem BioAssay AID2750 (The Scripps Research Institute Molecular Screening Center, 2010)
Not every entry of the source has a single result; some have several. This is not the full list of results. The source may hold further records. The records of an entry are repeats in other runs, samples, wells, individuals or studies. What stands in brackets tells the records apart. Letters count within one entry.

Test system: DLD-1 KLF5 promoter-luciferase reporter, luminescence
Assay: potency of KLF5 luciferase signal suppressors – luminescence, DLD-1 cells, powder samples, late-stage follow-up (AID 2750)

- IC50: 357 nM [sample A] and 20.5 nM [sample B]
SMILES: COC(=O)c1ccc2nc(Nc3nc4ccc(F)cc4s3)sc2c1
